# Test results published in the supplement of paper PMC8728848.
# The other results are listed elsewhere or left out.
# B1: FliC (Pseudomonas aeruginosa), P72151 (protein)
# chain: MALTVNTNIASLNTQRNLNASSNDLNTSLQRLTTGYRINSAKDDAAGLQISNRLSNQISGLNVATRNANDGISLAQTAEGALQQSTNILQRIRDLALQSANGSNSDADRAALQKEVAAQQAELTRISDTTTFGGRKLLDGSFGTTSFQVGSNAYETIDISLQNASASAIGSYQVGSNGAGTVASVAGTATASGIASGTVNLVGGGQVKNIAIAAGDSAKAIAEKMDGAIPNLSARARTVFTADVSGVTGGSLNFDVTVGSNTVSLAGVTSTQDLADQLNSNSSKLGITASINDKGVLTITSATGENVKFGAQTGTATAGQVAVKVQGSDGKFEAAAKNVVAAGTAATTTIVTGYVQLNSPTAYSVSGTGTQASQVFGNASAAQKSSVASVDISTADGAQNAIAVVDNALAAIDAQRADLGAVQNRFKNTIDNLTNISENATNARSRIKDTDFAAETAALSKNQVLQQAGTAILAQANQLPQAVLSLLR
# Assays:
# Test in all cases: glycan array binding signal (z-score within array); higher = stronger binding
# Settings in all cases: glycan notation: IUPAC condensed, linker removed
# [1] = biological target: Neu5Ac(a2-6)Gal(b1-4)GlcNAc(b1-6)GalNAc
# Summary of the method: (§1)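 Glycan array data were curated from 3228 arrays in the Consortium for Functional Glycomics database and kept only where the protein sequence was available. Glycan names were converted to IUPAC-condensed notation, and columns mapping to the same glycan were averaged. The binding signal is a within-array Z-score, averaged across arrays of the same protein sequence at different concentrations or buffers and across linkers. Negative Z-scores can be read as non-binding.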
# [2] = biological target: Neu5Ac(a2-6)Gal(b1-4)GlcNAc(b1-6)[Gal(b1-3)GlcNAc(b1-3)]Gal(b1-4)Glc
# Summary of the method: as §1
# [3] = biological target: Neu5Ac(a2-6)Gal(b1-4)GlcNAc(b1-6)[Gal(b1-3)]GalNAc
# Summary of the method: as §1
# [4] = biological target: Neu5Ac(a2-6)Gal(b1-4)GlcNAc6S
# Summary of the method: as §1
# Neu5Ac(a2-6)GalNAc = biological target: Neu5Ac(a2-6)GalNAc
# Summary of the method: as §1
# [5] = biological target: Neu5Ac(a2-6)GalNAc(b1-4)GlcNAc
# Summary of the method: as §1
# [6] = biological target: Neu5Ac(a2-6)GalNAc(b1-4)GlcNAc6S
# Summary of the method: as §1
# [7] = biological target: Neu5Ac(a2-6)GlcNAc(b1-4)GlcNAc
# Summary of the method: as §1
# [8] = biological target: Neu5Ac(a2-6)GlcNAc(b1-4)GlcNAc(b1-4)GlcNAc
# Summary of the method: as §1
# Neu5Ac(a2-8)Neu5Ac = biological target: Neu5Ac(a2-8)Neu5Ac
# Summary of the method: as §1
# [9] = biological target: Neu5Ac(a2-8)Neu5Ac(a2-3)Gal(b1-3)GalNAc(b1-4)[Neu5Ac(a2-3)]Gal(b1-4)Glc
# Summary of the method: as §1
# [10] = biological target: Neu5Ac(a2-8)Neu5Ac(a2-3)Gal(b1-3)GalNAc(b1-4)[Neu5Ac(a2-8)Neu5Ac(a2-3)]Gal(b1-4)Glc
# Summary of the method: as §1
# [11] = biological target: Neu5Ac(a2-8)Neu5Ac(a2-3)Gal(b1-4)Glc
# Summary of the method: as §1
# [12] = biological target: Neu5Ac(a2-8)Neu5Ac(a2-3)Gal(b1-4)GlcNAc
# Summary of the method: as §1
# [13] = biological target: Neu5Ac(a2-8)Neu5Ac(a2-3)[Gal(b1-3)GalNAc(b1-4)]Gal(b1-4)Glc
# Summary of the method: as §1
# [14] = biological target: Neu5Ac(a2-8)Neu5Ac(a2-3)[GalNAc(b1-4)]Gal(b1-4)Glc
# Summary of the method: as §1
# [15] = biological target: Neu5Ac(a2-8)Neu5Ac(a2-8)Neu5Ac
# Summary of the method: as §1
# [16] = biological target: Neu5Ac(a2-8)Neu5Ac(a2-8)Neu5Ac(a2-3)Gal(b1-4)Glc
# Summary of the method: as §1
# [17] = biological target: Neu5Ac(a2-8)Neu5Ac(a2-8)Neu5Ac(a2-3)[Gal(b1-3)GalNAc(b1-4)]Gal(b1-4)Glc
# Summary of the method: as §1
# [18] = biological target: Neu5Ac(a2-8)Neu5Ac(a2-8)Neu5Ac(a2-3)[GalNAc(b1-4)]Gal(b1-4)Glc
# Summary of the method: as §1
# [19] = biological target: Neu5Ac(a2-8)Neu5Ac(a2-8)Neu5Ac(a2-8)Neu5Ac(a2-3)[GalNAc(b1-4)]Gal(b1-4)Glc
# Summary of the method: as §1
# [20] = biological target: Neu5Ac(a2-8)Neu5Gc(a2-3)Gal(b1-4)GlcNAc
# Summary of the method: as §1
# [21] = biological target: Neu5Ac(b2-6)Gal(b1-4)GlcNAc
# Summary of the method: as §1
# Neu5Ac(b2-6)GalNAc = biological target: Neu5Ac(b2-6)GalNAc
# Summary of the method: as §1
# [22] = biological target: Neu5Ac9Ac(a2-3)Gal(b1-4)GlcNAc
# Summary of the method: as §1
# [23] = biological target: Neu5Ac9Ac(a2-6)Gal(b1-4)GlcNAc
# Summary of the method: as §1
# [24] = biological target: Neu5Gc(a2-3)Gal(b1-3)GlcNAc
# Summary of the method: as §1
# [25] = biological target: Neu5Gc(a2-3)Gal(b1-3)[Fuc(a1-4)]GlcNAc
# Summary of the method: as §1
# Neu5Gc(a2-3)Gal(b1-4)Glc = biological target: Neu5Gc(a2-3)Gal(b1-4)Glc
# Summary of the method: as §1
# [26] = biological target: Neu5Gc(a2-3)Gal(b1-4)GlcNAc
# Summary of the method: as §1
# [27] = biological target: Neu5Gc(a2-3)Gal(b1-4)GlcNAc(b1-3)Gal(b1-4)GlcNAc(b1-2)Man(a1-3)[Neu5Gc(a2-3)Gal(b1-4)GlcNAc(b1-3)Gal(b1-4)GlcNAc(b1-2)Man(a1-6)]Man(b1-4)GlcNAc(b1-4)GlcNAc
# Summary of the method: as §1
# [28] = biological target: Neu5Gc(a2-3)Gal(b1-4)[Fuc(a1-3)]GlcNAc
# Summary of the method: as §1
# [29] = biological target: Neu5Gc(a2-6)Gal(b1-4)GlcNAc
# Summary of the method: as §1
# Neu5Gc(a2-6)GalNAc = biological target: Neu5Gc(a2-6)GalNAc
# Summary of the method: as §1
# [30] = biological target: Neu5Gc(a2-8)Neu5Ac(a2-3)Gal(b1-4)GlcNAc
# Summary of the method: as §1
# [31] = biological target: Neu5Gc(a2-8)Neu5Gc(a2-3)Gal(b1-4)GlcNAc
# Summary of the method: as §1
# [32] = biological target: Neu5Gc(a2-8)Neu5Gc(a2-3)Gal(b1-4)GlcNAc(b1-3)Gal(b1-4)GlcNAc
# Summary of the method: as §1
# [33] = biological target: Neu5Gc(a2-8)Neu5Gc(a2-6)Gal(b1-4)GlcNAc
# Summary of the method: as §1
binder,measurement,setting,value
B1,glycan array binding signal (z-score),[1],-0.231
same,glycan array binding signal (z-score),[2],-0.184
same,glycan array binding signal (z-score),[3],-0.061
same,glycan array binding signal (z-score),[4],0.713
same,glycan array binding signal (z-score),Neu5Ac(a2-6)GalNAc,1.71
same,glycan array binding signal (z-score),[5],-0.253
same,glycan array binding signal (z-score),[6],-0.076
same,glycan array binding signal (z-score),[7],-0.187
same,glycan array binding signal (z-score),[8],-0.178
same,glycan array binding signal (z-score),Neu5Ac(a2-8)Neu5Ac,-0.13
same,glycan array binding signal (z-score),[9],-0.082
same,glycan array binding signal (z-score),[10],-0.103
same,glycan array binding signal (z-score),[11],2.98
same,glycan array binding signal (z-score),[12],-0.2
same,glycan array binding signal (z-score),[13],-0.144
same,glycan array binding signal (z-score),[14],-0.209
same,glycan array binding signal (z-score),[15],-0.088
same,glycan array binding signal (z-score),[16],-0.109
same,glycan array binding signal (z-score),[17],-0.227
same,glycan array binding signal (z-score),[18],-0.22
same,glycan array binding signal (z-score),[19],-0.066
same,glycan array binding signal (z-score),[20],-0.217
same,glycan array binding signal (z-score),[21],-0.257
same,glycan array binding signal (z-score),Neu5Ac(b2-6)GalNAc,1.11
same,glycan array binding signal (z-score),[22],-0.239
same,glycan array binding signal (z-score),[23],-0.222
same,glycan array binding signal (z-score),[24],-0.117
same,glycan array binding signal (z-score),[25],-0.22
same,glycan array binding signal (z-score),Neu5Gc(a2-3)Gal(b1-4)Glc,-0.084
same,glycan array binding signal (z-score),[26],-0.226
same,glycan array binding signal (z-score),[27],-0.025
same,glycan array binding signal (z-score),[28],-0.163
same,glycan array binding signal (z-score),[29],-0.214
same,glycan array binding signal (z-score),Neu5Gc(a2-6)GalNAc,-0.183
same,glycan array binding signal (z-score),[30],-0.163
same,glycan array binding signal (z-score),[31],-0.15
same,glycan array binding signal (z-score),[32],-0.054
same,glycan array binding signal (z-score),[33],-0.182
